# Patent US6518317B1, “Antiviral agents” (priority 1997, dated 2003)
# Tested on: recombinant retrovirus producer cells Ψ CRIP/DOL
# Conditions: 24 hours
smiles,measurement,setting,value
"O=C1C=CC(O)C1O (stereo not shown) [cyclopentenone, 4,5-dihydroxy-2-cyclopenten-1-one]",titer of the virus solution,0.1 μM,8.3×10^4 cfu/ml
same,titer of the virus solution,0.5 μM,6.4×10^4 cfu/ml
same,titer of the virus solution,1.0 μM,6.1×10^4 cfu/ml
same,titer of the virus solution,2.0 μM,3.8×10^4 cfu/ml
same,titer of the virus solution,5.0 μM,5.6×10^4 cfu/ml
same,titer of the virus solution,10 μM,5.1×10^4 cfu/ml
same,titer of the virus solution,20 μM,4.1×10^4 cfu/ml

# Read-outs that look alike come from different tables or passages of the source.
